Experiment [1] deals with T1, Dbp7-TAP (S. cerevisiae) (UniProt P36120).
T1 sequence: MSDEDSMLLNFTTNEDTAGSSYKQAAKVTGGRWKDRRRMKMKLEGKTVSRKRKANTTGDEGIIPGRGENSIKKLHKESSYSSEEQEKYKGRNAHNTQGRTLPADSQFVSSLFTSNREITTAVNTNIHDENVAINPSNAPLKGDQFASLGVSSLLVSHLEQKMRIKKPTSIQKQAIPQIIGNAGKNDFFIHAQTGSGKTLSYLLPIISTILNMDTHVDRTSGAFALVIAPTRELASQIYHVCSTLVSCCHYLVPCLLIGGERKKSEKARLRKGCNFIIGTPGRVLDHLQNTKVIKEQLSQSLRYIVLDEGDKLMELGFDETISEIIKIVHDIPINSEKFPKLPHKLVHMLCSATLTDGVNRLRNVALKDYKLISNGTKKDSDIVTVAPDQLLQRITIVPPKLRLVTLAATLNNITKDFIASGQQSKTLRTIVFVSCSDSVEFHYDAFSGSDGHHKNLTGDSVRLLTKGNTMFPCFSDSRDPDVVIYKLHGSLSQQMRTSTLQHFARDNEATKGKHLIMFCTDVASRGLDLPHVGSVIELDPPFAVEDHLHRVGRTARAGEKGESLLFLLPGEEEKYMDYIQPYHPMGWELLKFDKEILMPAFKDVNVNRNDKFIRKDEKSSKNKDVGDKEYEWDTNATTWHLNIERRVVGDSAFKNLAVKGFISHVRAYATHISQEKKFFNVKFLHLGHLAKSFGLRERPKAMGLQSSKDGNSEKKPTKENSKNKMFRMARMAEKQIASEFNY
The experiment can be described thus: pull-down; Dbp7-TAP captured from whole-cell lysate on IgG sepharose, input and eluate by western blotting with antibodies against endogenous r-proteins; co-purified pre-ribosomal particles.

Amino acid sequences for entries named in this document (tags omitted).
UniProt P14126: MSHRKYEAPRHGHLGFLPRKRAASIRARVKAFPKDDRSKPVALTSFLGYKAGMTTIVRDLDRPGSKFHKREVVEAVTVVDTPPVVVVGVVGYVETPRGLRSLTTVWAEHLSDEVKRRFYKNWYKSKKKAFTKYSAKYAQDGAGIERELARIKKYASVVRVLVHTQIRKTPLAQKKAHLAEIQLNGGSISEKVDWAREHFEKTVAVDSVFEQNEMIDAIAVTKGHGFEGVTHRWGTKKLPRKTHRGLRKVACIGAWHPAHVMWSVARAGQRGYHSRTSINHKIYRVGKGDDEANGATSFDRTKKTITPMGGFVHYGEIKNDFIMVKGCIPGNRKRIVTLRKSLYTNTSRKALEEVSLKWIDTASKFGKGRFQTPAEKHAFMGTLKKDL

The target of experiment [2] is T2, Nop2-TAP (S. cerevisiae) (UniProt P40991).
T2 sequence: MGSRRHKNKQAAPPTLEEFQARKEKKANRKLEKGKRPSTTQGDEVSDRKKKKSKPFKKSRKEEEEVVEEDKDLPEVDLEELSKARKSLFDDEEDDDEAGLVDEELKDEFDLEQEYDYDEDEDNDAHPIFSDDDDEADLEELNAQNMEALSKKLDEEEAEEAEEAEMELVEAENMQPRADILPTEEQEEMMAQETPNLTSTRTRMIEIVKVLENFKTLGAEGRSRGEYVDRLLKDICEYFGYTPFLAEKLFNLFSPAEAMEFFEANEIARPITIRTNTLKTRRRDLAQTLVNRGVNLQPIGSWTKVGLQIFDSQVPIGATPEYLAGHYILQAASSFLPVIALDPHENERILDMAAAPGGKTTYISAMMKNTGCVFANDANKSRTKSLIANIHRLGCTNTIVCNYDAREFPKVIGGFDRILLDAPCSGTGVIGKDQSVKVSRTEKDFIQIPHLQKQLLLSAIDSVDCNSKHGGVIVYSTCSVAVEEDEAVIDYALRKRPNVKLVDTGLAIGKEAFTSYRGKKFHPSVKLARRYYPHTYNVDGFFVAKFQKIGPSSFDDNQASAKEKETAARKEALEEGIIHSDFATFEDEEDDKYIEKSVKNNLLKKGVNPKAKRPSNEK
As to the kind of experiment: pull-down; Nop2-TAP particles isolated on IgG sepharose from strains of the Dbp7 complementation system (WT + EV, Δdbp7 + EV, + Dbp7WT, + Dbp7DQGD), TEV elution, western blotting of input and eluate.

The target in experiment [3] is T2, Nop2-TAP (S. cerevisiae). The description is as above. This is another data set of the same source.

The text below walks through data of PMC8536713.

Like-named read-outs stand apart in the source and are kept apart here. No constants are given. Whether binding was seen depends on the method and setting. Binding seen in cells or lysates may run through a third protein. Some results given as binding are weak or reduced against the parent protein; the word gives no strength. For part of these data: Sequences can lack the tags named with a protein.

With uL3 (from UniProt P14126 1-387), the binding entry in experiment [1] and in experiment [2] was “binds” each time.

B1: Cic1-HA (protein, UniProt P38779 1-376)
chain: MAKKSNSKKSTPVSTPSKEKKKVIEKKSSTAIPRERVIKAVNELIKFTSKPQDENNEEGNNGKKNLLEDDEEELKKDLQLIVVNNKSFTGTSKSFKLKLLNVKHSFYKPWKEASATAVKDFKVLLILKDSDIKKVSEDDLFDQLDSEGIKVDEIICGKDLKTVYKAYEARNAFISQFSLILADDSIVTSLPKLMGGKAYNKVETTPISIRTHANKEFSLTTLTNNIKKVYMNQLPVKLPRGTTLNVHLGNLEWLRPEEFVDNVELISEQLIKAYQIRSIFIKTNRSPVLPLYYNQDVLDELEAKKDKIEETHEDDMVTIDGVQVHLSTFNKGLMEIANPSELGSIFSKQINNAKKRSSSELEKESSESEAVKKAKS
Take B1: in experiment [3], the binding result is “binds”.
